According to PubChem BioAssay (NCATS):
Inconclusive results, whose numbers are uncertain, are shown with a selection of clear calls. Where the call is inconclusive, the potency comes from a doubtful curve fit. Activity calls are given as the source filed them. The call rests on the fitted dose curve; in most records, active means well fitted cell-killing curve with a large enough effect; inconclusive means small, poorly fitted or top-dose-only effect, or effect the other way; inactive means flat fitted curve, though single readings scatter.

Each compound was assayed on C33A (assay: Primary qHTS to identify gynecologic anti-cancer compounds using libraries of approved drugs and bioactive compounds (AID 1345084; further: nearly all actives have a fitted effect of over 55% in size)). Settings: Gynecologic cancer cell panel viability, ATPlite luminescence, 48 h; series mostly up to 57.5 µM; activity change, negative = cytotoxicity: at the top concentration.
In short: (§1)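 48 h compound exposure at 37 C, 5% CO2; five-point qHTS. ATPlite luminescence readout of cell ATP.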
On the % scale 0 is the no-effect control and ±100 the full control effect; potency means the concentration at half of the fitted maximal effect; tags describe the fitted curve by direction and shape.

SMILES | activity change, negative = cytotoxicity | Potency
O=C1CN=C(c2cccc(Br)c2)c2oc3ccccc3c2N1 | inactive: -1.13% | –
CC[C@@H]1/C=C/C=C/C[C@H](C)C(O)[C@](C)(O)C(=O)[C@H](C)C(O)[C@H](C)C(=O)[C@H](C)[C@@H](O)[C@H](C)/C=C/C(=O)O[C@H]2[C@@H](C)[C@@H](CC1)O[C@]1(O[C@H](C[C@H](C)O)[C@H](C)CC1=O)[C@@H]2C (some centres not stated) | – | inconclusive: 0.0355 µM [cytotoxic, full curve, poor fit]
CCOC(=O)c1ccc(-c2ccc(OC(=O)N(C)Cc3cccc(-c4ccncc4)c3)cc2)cc1 | – | inconclusive: 14.1 µM [cytotoxic, partial curve]
C[C@]12CC[C@H](OC3OC(CO)C(O)C(O)C3OC3OC(CO)C(O)C(O)C3O)C[C@@H]1CC[C@@H]1C2CC[C@]2(C)[C@@H](C3=CC(=O)OC3)CC[C@]12O (some centres not stated) | – | inconclusive: 12.6 µM [cytotoxic, single point]
CCCC1CCCCN1 (configuration not stated) | inactive: 3.74% | –
CC1C/C=C/C(O)C(O)CC/C=C/c2cc(O)cc(O)c2C(=O)O1 (configuration not stated) | inactive: 10.8% [at 38.5 µM] | –

What follows are compounds tested on CAOV3 in the same assay as above. Settings: Gynecologic cancer cell panel viability, ATPlite luminescence, 48 h; series mostly up to 57.5 µM; activity change, negative = cytotoxicity: at the top concentration.
In short: as §1

SMILES | activity change, negative = cytotoxicity | Potency
COC(=O)C12C(=O)C(C)(O)C(=O)C1(C)C(C)=CC1C34CCC(OC3=O)C(C)(CO)C4CCC12C (configuration not stated) | inactive: 6.19% [at 25.3 µM] | –
Cn1ncnc1COc1nn2c(-c3c(F)cccc3F)nnc2cc1C1CCC1 | – | inconclusive: 28.2 µM [rising, single point]
CC(C)(C)[C@]1(O)C[C@@H]2OC(=O)C[C@@]23C(=O)O[C@@H]2OC(=O)[C@@H](O)[C@]213 | – | inconclusive: 0.447 µM [rising, full curve, poor fit]
O=P1(N(CCCl)CCCl)NCCCO1 (configuration not stated) | inactive: -23.2% | –
C=C(C)[C@@H]1[C@H]2OC(=O)[C@H]1[C@]1(O)C[C@H]3O[C@]34C(=O)O[C@H]2[C@]14C | inactive: 4.51% | –
CCCCCn1cc(C(=O)C2C(C)(C)C2(C)C)c2ccccc21 | inactive: 4.98% | –
Cc1ccc(Cn2nc(C(=O)N[C@@H]3C(C)(C)[C@@H]4CC[C@@]3(C)C4)cc2-c2ccc(Cl)c(C)c2)cc1 | – | inconclusive: 2.51 µM [rising, partial curve, poor fit]
NNC(=O)c1nn(Cc2ccc(Cl)cc2Cl)c2ccccc12 | – | inconclusive: 39.8 µM [rising, partial curve, poor fit]
CN1C(=O)CN=C(c2ccccc2Cl)c2cc(Cl)ccc21 | inactive: 9.44% | –
CS[C@]1(CO)C(=O)N2[C@H]3C(=CC=C[C@@H]3O)C[C@@]2(SC)C(=O)N1C | – | inconclusive: 28.2 µM [rising, single point]
C=CC(C)(O)CC/C=C(\C)C(=O)O[C@H]1[C@H](O)[C@@H](CO)O[C@@H](OC(=O)[C@]23CCC(C)(C)CC2C2=CCC4[C@@]5(C)CC[C@H](O[C@@H]6O[C@H](CO[C@@H]7OC[C@H](O)[C@H](O)[C@H]7O[C@@H]7OC[C@@H](O)[C@H](O)[C@H]7O)[C@@H](O)[C@H](O)[C@H]6O)C(C)(C)C5CC[C@@]4(C)[C@]2(C)CC3)[C@@H]1OC1OC(C)C(O[C@@H]2OC[C@@H](O)[C@H](O[C@@H]3OC[C@@H](O)[C@H](O)[C@H]3O)[C@H]2O)C(O)C1O (some centres not stated) | – | inconclusive: 2.24 µM [rising, partial curve, poor fit]
O=C(N[C@H]1CN2CCC1CC2)c1cc2cccc(Cl)c2s1 | – | inconclusive: 31.6 µM [cytotoxic, single point]
C[C@H]1O[C@@H](n2cnc3c(N)ncnc32)C[C@@H]1O | – | inconclusive: 25.1 µM [rising, single point]
Cc1cccc(NC(=O)NC2N=C(c3ccccc3)c3ccccc3N(CC(=O)c3ccccc3C)C2=O)c1 (configuration not stated) | – | inconclusive: 0.316 µM [cytotoxic, full curve, poor fit]
C[C@@H]1[C@H](O)[C@@H](C)/C=C/C=C/CC/C=C/C=C/C=C/C=C/[C@H](O[C@H]2O[C@@H](C)[C@H](O)[C@@H](N)[C@H]2O)C[C@@H]2O[C@](O)(C[C@@H](O)[C@H](O)CC[C@@H](O)C[C@@H](O)C[C@@H](O)CC(=O)O[C@H]1C)C[C@H](O)[C@H]2C(=O)O | inactive: -5.81% [at 25.3 µM] | –
C1=C(c2cnc[nH]2)c2ccsc2CC1 | inactive: -1.75% | –
CCOC(=O)c1ncn2c1CN(C)C(=O)c1c(I)cccc1-2 | inactive: 5.27% | –
CCN1C[C@]2(COC)[C@H](O)C[C@H](OC)[C@]34[C@@H]5C[C@]6(O)[C@H](OC(=O)c7ccccc7)[C@@H]5[C@@](O)([C@H]([C@H](OC)[C@H]23)[C@@H]14)[C@@H](O)[C@@H]6OC | inactive: 9.73% [at 38.5 µM] | –
CCOC(=O)Nc1ccc(NCc2c(C)cc(C)cc2C)cc1N | – | inconclusive: 35.5 µM [rising, single point]
O=S(=O)(c1ccccc1F)N1CCOc2c(N3CCNCC3)cccc21 | – | inconclusive: 25.1 µM [rising, partial curve, poor fit]
C[C@H](NC(=O)Cc1cc(F)cc(F)c1)C(=O)N[C@@H]1N=C(c2ccccc2)c2ccccc2N(C)C1=O | – | inconclusive: 0.562 µM [cytotoxic, single point]
